According to article PMC4336329 (PLoS ONE, 2015):
Among all 310,000 compounds or so, about 14,000 (4.5%) showed an effect of 50% or more. Effects have a minus sign here. Some of the results follow.

What follows are compounds tested against human ether-à-go-go-related gene (hERG) potassium channel (human, UniProt Q12809) (assay: primary screen, population patch clamp on CHO cells stably expressing hERG).
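Further: peak tail current of the secondary pulse compared with the same well before compound.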

human ether-à-go-go-related gene (hERG) potassium channel, sequence (Q12809 whole entry, looked up): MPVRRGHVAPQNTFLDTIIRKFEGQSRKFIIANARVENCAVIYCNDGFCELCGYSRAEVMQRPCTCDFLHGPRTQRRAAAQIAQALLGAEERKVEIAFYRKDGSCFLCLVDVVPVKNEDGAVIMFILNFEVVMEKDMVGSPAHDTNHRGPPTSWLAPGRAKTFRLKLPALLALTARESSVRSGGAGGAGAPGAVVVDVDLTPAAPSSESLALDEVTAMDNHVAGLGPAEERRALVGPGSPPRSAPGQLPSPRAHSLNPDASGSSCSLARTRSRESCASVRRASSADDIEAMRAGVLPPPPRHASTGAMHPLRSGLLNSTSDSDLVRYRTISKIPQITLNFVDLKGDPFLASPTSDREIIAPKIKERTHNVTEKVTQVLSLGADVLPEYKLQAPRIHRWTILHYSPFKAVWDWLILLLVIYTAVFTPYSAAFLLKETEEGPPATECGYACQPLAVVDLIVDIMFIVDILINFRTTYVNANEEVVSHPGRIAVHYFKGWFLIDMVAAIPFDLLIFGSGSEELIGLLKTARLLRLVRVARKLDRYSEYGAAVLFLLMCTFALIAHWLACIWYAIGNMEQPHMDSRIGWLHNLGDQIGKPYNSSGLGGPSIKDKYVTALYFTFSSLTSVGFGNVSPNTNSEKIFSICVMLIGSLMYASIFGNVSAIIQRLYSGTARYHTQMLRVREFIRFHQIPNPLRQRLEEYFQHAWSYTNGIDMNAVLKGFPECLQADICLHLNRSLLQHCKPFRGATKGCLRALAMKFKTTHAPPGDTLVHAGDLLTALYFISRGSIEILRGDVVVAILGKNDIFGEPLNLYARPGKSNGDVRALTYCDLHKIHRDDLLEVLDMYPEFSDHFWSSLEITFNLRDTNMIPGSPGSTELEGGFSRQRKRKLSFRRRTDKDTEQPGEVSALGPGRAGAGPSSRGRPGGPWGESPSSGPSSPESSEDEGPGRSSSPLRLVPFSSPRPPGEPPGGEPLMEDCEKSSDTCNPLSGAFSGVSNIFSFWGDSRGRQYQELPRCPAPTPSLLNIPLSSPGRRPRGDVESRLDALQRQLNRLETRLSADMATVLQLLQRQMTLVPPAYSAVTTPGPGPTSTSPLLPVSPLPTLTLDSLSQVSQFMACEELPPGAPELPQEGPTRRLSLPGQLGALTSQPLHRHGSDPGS

Row | SMILES | hERG current change (%, negative = inhibition) at 10uM [%]
1 | COc1cccc(/C=N/NC(=O)N/N=C/c2cccc(OC)c2O)c1O | 13.7
2 | CCOc1ccc(C(=O)NCCc2ccccc2)cc1 | 15
3 | CCOP(=O)(OCC)C(Nc1ccc(OC)cc1)c1ccco1 (stereo not shown) | 4.78
4 | C=CCNC(=O)c1cnc2n(c1=O)CCS2 | 4.75
5 | Cc1ccc(C(=O)NNC(=O)CCC(=O)Nc2cc(C)on2)cc1 | 18.9
6 | O=C(COc1coc(CN2CCCc3ccccc32)cc1=O)Nc1cccc([N+](=O)[O-])c1 | -1.67
7 | Cc1cc(N/N=C/c2ccc3c(c2)OCO3)nc2ccccc12 | 0.78
8 | CCOC(=O)c1c(CN(C)C)n(C)c2c(O)c(N=NC(N)=O)c3ccc(Br)cc3c12.Cl | 2.22
9 | CNC(=O)N1c2ccccc2CCc2ccccc21 | 8.99
10 | CC(C)OP(=O)(OC(C)C)C(Nc1ccccn1)c1ccc(F)cc1 (stereo not shown) | 19.7
11 | CCCC(=O)Nc1ccc(N2CCN(C(=O)c3cc4ccccc4o3)CC2)cc1 | -13.4
12 | CCCCNC(=S)N(C)/N=C/c1ccc(OCC(=O)Nc2ccc(OC)cc2)c(OC)c1 | -4.23
13 | O=C(COc1ccccc1)NC1CCSC1=O (stereo not shown) | -72.9
14 | NS(=O)(=O)c1ccc(CCNC(=O)C2CCN(S(=O)(=O)c3cnc[nH]3)CC2)cc1 | -2.97
15 | CN(C(=O)c1ccccc1NC(=O)C(F)(F)F)c1ccccc1 | 12.9
16 | CCOC(=O)c1sc2nc(C)n(N)c(=O)c2c1C | 23.8
17 | CC(Sc1nnc2c(n1)[nH]c1ccccc12)C(=O)NC1CCCCC1 (stereo not shown) | -3.94
18 | COc1ccc(S(=O)(=O)N(C)C)cc1NC(=O)c1ccc2c(c1)OCCO2 | 3.66
19 | CCOC(=O)c1c[nH]c2c(C(F)(F)F)cccc2c1=O | 6.07
20 | Cc1ccc2cc3cc(C(=O)NCCCN4CCCC4=O)oc3nc2c1 | 2.4

Row | SMILES | hERG current change (%, negative = inhibition) at 10uM [%]
21 | O=C1COc2ccc(C(=O)COC(=O)c3ccccn3)cc2N1 | -4.24
22 | COC(=O)c1ccccc1C(=O)N1CCOCCOCCOCC1 | 13.2
23 | CCN(CC(=O)NCc1ccc(Cl)cc1)C(=O)/C=C/c1ccccc1 | -46
24 | Cc1cc(Cl)ccc1Oc1ncnc2onc(C)c12 | 2.55
25 | O=C(O)Cn1cnc2ccccc2c1=O | 11.6
26 | O=C(Cn1cc2c(n1)CCCCC2)NC1CCN(Cc2ccccc2)CC1 | -58.5
27 | COc1ccc(/C=C(/NC(=O)c2ccco2)C(=O)Nc2ccc(C(=O)O)cc2)cc1 | 9.11
28 | CC1Cc2ccccc2N1C(=O)CNCCCN(C)C.O=C(O)C(=O)O (stereo not shown) | 4.46
29 | CCOC(=O)/C(=N/Nc1ccccc1)c1csc(Nc2ccccc2)n1 | -1.19
30 | Cc1c(O)nc(SC2CC(=O)N(c3ccccc3)C2=O)[nH]c1=O (stereo not shown) | 7.22
31 | COc1cc(C(=O)N2CCc3ccccc32)ccc1OCc1c(C)noc1C | -29
32 | Cc1ccc(NC(=O)c2ccc(S(=O)(=O)N3CCCC3)cc2)nc1 | 16.9
33 | Cc1noc(NS(=O)(=O)c2ccc(NC(=O)c3oc4ccc(Cl)cc4c3C)cc2)c1C | 8
34 | Cc1nc2nc(COc3ccccc3)[nH]n2c(=O)c1C | 8.35
35 | Cc1cc(C)c(NC(=O)C(=O)NCc2ccco2)c(C)c1 | 15.2
36 | Cc1cc(CNC(=O)COc2cc(F)ccc2[N+](=O)[O-])c2ccccc2n1 | -0.901
37 | O=C(c1ccccc1)c1cnc2ccc(Cl)cc2c1N1CCOCC1 | -14.5
38 | O=C(Nc1ccc(Cl)c(Cl)c1)N(Cc1cccnc1)Cc1ccco1 | -73.7
39 | CCOC(=O)c1ccc(NC(=O)Cc2coc3cc4c(cc23)CCC4)cc1 | 5.55
40 | COc1ccc(CNC(=O)CN2CCN(c3ccc(F)cc3)CC2)cc1 | -39.1

Row | SMILES | hERG current change (%, negative = inhibition) at 10uM [%]
41 | COc1ccc(C(=O)NNC(=O)CSc2nc(C(C)C)nc3ccccc23)cc1 | -3.52
42 | O=C(CCN1CCN(c2ccccc2)CC1)Nc1nccs1 | -9.77
43 | Cn1nnnc1NCc1ccc(Cl)c(Cl)c1 | 7.47
44 | C=CC[n+]1c(-c2ccc(C)cc2)csc1NNC(=O)Nc1ccccc1.[Br-] | -6.68
45 | Cc1cccc(NC(=O)CCCCCN2C(=O)[C@@H]3Cc4ccccc4CN3C2=O)c1 | -21.7
46 | CCCNC(=O)C1CCC(CNS(=O)(=O)c2ccc3c(c2)CC(C)N3C(C)=O)CC1 (stereo not shown) | 17.2
47 | COC(=O)c1ccc(C(=O)OC)c(NC(=S)N2CCC(C)CC2)c1 | 5.56
48 | CCn1c(=O)c2cc(C(=O)N3CCN(C)CC3)sc2c2ccccc21 | -7.87
49 | Clc1ccc(N/N=C/c2cccnc2)cc1 | -0.519
50 | COc1ccc(C(=O)O)cc1S(=O)(=O)Nc1ccc(C)cc1 | 23.1
51 | Clc1ccc2c(NCc3ccccn3)ncnc2c1 | -5.19
52 | C1COC(NC(C2CC2)C2CC2)=N1.O=C(O)/C=C/C(=O)O | 5.66
53 | CCn1nc(C)c(NS(=O)(=O)c2ccc(C)cc2)c1C | -0.126
54 | O=C(Cc1ccc(F)cc1)Nc1c(C(=O)N2CCN(c3ncccn3)CC2)oc2ccccc12 | -56
55 | COC(=O)c1ccc(SC)cn1 | 14.8
56 | COc1ccc(C(CNC(=O)Cc2ccc(-c3ccccc3)cc2)N(C)C)cc1 (stereo not shown) | -29.8
57 | CCc1ccccc1NC(=O)CSc1nc(-c2ccccc2)nn1C(=O)c1cccc([N+](=O)[O-])c1 | -0.129
58 | Cc1ccc(-n2c(=O)c3sccc3n(CC(=O)NC3CCCC3)c2=O)cc1 | 16
